Measurements published in the supplement of paper PMC10338343.
± gives the standard deviation. The entries are a selection whose mix differs from that of the whole data set.
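Note: 1 nM active piRISC with 0.1 nM target library at 33 °C single turnover.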

The sequences below were run on MIWI (PIWIL1) piRISC loaded with L1MC piRNA (30 nt) (assay: pre-steady-state target cleavage rate (min^-1); MIWI and MILI are mouse PIWI proteins and EfPiwi is from a freshwater sponge; tags in brackets are library labels; higher = faster piRNA-guided slicing of the target). Conditions: guide: L1MC piRNA 5'p-UAACUAAAUACUAUGCAAGCUGUAGGUCCU; auxiliary factor: 500 nM mouse GTSF1.
Summary of the method: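 A burst-and-steady-state fit was used to obtain the pre-steady-state cleavage rate. The input data were sequencing reads of uncleaved targets, normalised to depth and to weakly complementary targets, from a […] transcribed, DNA-blocked target RNA library mixed with 1 nM active affinity-purified piRISC holding one synthetic guide, with or without 500 nM GTSF1 partner protein, in HEPES–potassium acetate buffer at 33 °C for 0–8 or 0–960 min. Three trials were pooled and k3 was capped at 0.0001 min^-1.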
In the case of UCCUGGAUGUCGUUGCAUAGCAUUUAGUUA, the “pre-steady-state target cleavage rate” value is reported as 0.0053 ± 0.0037. UCCUGGAUCAGCUACCAUAGUAUUUAGUUA was tested, and the “pre-steady-state target cleavage rate” value was 0.021 ± 0.005. For UCCUGGAUGUCCUACCAUAGUAUUUAGUUA, the “pre-steady-state target cleavage rate” value was 0.0405 ± 0.013. With UCCUGGAUGUGCAUGCAUAGUAUAUAGUUA the “pre-steady-state target cleavage rate” value was 0.0113 ± 0.005. With UCCUGGAUCAGCUUGCGAUAGUAUUUAGUUA the “pre-steady-state target cleavage rate” value was 0.00597 ± 0.0041. UCCUGGAUGUCCAUGCAUAGUAUUUUGUUA was tested, and the “pre-steady-state target cleavage rate” value was 0.00484 ± 0.0039. For UCGACCUACAGCUUCCAUAGUAUUUAGUAA, the “pre-steady-state target cleavage rate” value was 0.075 ± 0.018. UCCUGGUACAGCUUGCAUAGUUUUUUCAAA was tested, and the “pre-steady-state target cleavage rate” value was 0.0267 ± 0.014. In the case of UCCUCCUACAGGAUGCAUAGUAUUUUCAAA, the “pre-steady-state target cleavage rate” value is reported as 0.252 ± 0.045. UCCUGGAUGUCGAAGCAUAGUAUUUCGUUA was tested, and the “pre-steady-state target cleavage rate” value was 0.00699 ± 0.0031. AGGACCUACAGCUUGCAUAGCUAUUUAGUUA was tested, and the “pre-steady-state target cleavage rate” value was 0.136 ± 0.05. With AGGUGGUACAGCUUGCAUAGUAUUUACAAA the “pre-steady-state target cleavage rate” value was 0.107 ± 0.024. In the case of UCCUGGAUGUCCUUGCAUUGUAUUUAGAUA, the “pre-steady-state target cleavage rate” value is reported as 0.00414 ± 0.0039. In the case of UCCUGGAUGAGCUUGCAUAGCUAUUUAGUUA, the “pre-steady-state target cleavage rate” value is reported as 0.00386 ± 0.0029. For UCGACCUACAGCUUGCAUAGUAUAAUCAAA, the “pre-steady-state target cleavage rate” value was 0.386 ± 0.062. UCCUGCUACAGCUUGGUUAGUAUUUUCAAA was tested, and the “pre-steady-state target cleavage rate” value was 0.00524 ± 0.0039.
